{"source": "the supplement of paper PMC8728848", "binders": {"B1": {"name": "F17bG (Escherichia coli), Q47200 (protein)", "chain": "MTNFYKVFLAVFILVCCNISHAVVSFIGSTENDVGPSQGSYSSTHAMDNLPFVYNTGYNIGYQNANVWRIGGGFCVGLDGKVDLPVVGSLDGQSIYGLTEEVGLLIWMGDTNYSRGTAMSGNSWENVFSGWCVGNYLSTQGLSVHVRPVILKRNSSAQYSVQKTSIGSIRMRPYNGSSAGSVQTTVNFSLNPFTLNDTVTSCRLLTPSAVNVSLAAISAGQLPSSGDEVVAGTTSLKLQCDAGVTVWATLTDATTPSNRSDILTLTGASTATGVGLRIYKNTDSTPLKFGPDSPVKGNENQWQLSTGTETSPSVRLYVKYVNTGEGINPGTVNGISTFTFSYQ"}}, "test_in_all_cases": "glycan array binding signal (z-score within array); higher = stronger binding", "conditions_in_all_cases": "glycan notation: IUPAC condensed, linker removed", "key": {"[1]": {"target": "Neu5Ac(a2-3)Gal(b1-3)GalNAc(b1-3)Gal(b1-4)GlcNAc", "in_short": "(§1)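 The binding signal is a Z-score computed within each array. Data were drawn from 3228 arrays in the Consortium for Functional Glycomics database, restricted to those with a known protein sequence. Scores were averaged over arrays of the same protein sequence at different concentrations or buffers, and over linkers, and negative values can be taken as non-binding.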"}, "[2]": {"target": "Neu5Ac(a2-3)Gal(b1-3)GalNAc(b1-4)[Neu5Ac(a2-3)]Gal(b1-4)Glc", "in_short": "as §1"}, "[3]": {"target": "Neu5Ac(a2-3)Gal(b1-3)GalNAc6S", "in_short": "as §1"}, "[4]": {"target": "Neu5Ac(a2-3)Gal(b1-3)GlcNAc", "in_short": "as §1"}, "[5]": {"target": "Neu5Ac(a2-3)Gal(b1-3)GlcNAc6S", "in_short": "as §1"}, "[6]": {"target": "Neu5Ac(a2-3)Gal(b1-3)[Fuc(a1-4)]GlcNAc", "in_short": "as §1"}, "[7]": {"target": "Neu5Ac(a2-3)Gal(b1-3)[Fuc(a1-4)]GlcNAc(b1-3)Gal(b1-4)[Fuc(a1-3)]GlcNAc", "in_short": "as §1"}, "[8]": {"target": "Neu5Ac(a2-3)Gal(b1-3)[Neu5Ac(a2-3)Gal(b1-4)]GlcNAc", "in_short": "as §1"}, "[9]": {"target": "Neu5Ac(a2-3)Gal(b1-3)[Neu5Ac(a2-6)]GalNAc", "in_short": "as §1"}, "Neu5Ac(a2-3)Gal(b1-4)Glc": {"target": "Neu5Ac(a2-3)Gal(b1-4)Glc", "in_short": "as §1"}, "[10]": {"target": "Neu5Ac(a2-3)Gal(b1-4)GlcNAc", "in_short": "as §1"}, "[11]": {"target": "Neu5Ac(a2-3)Gal(b1-4)GlcNAc(b1-2)Man(a1-3)[Neu5Ac(a2-3)Gal(b1-4)GlcNAc(b1-2)Man(a1-6)]Man(b1-4)GlcNAc(b1-4)GlcNAc", "in_short": "as §1"}, "[12]": {"target": "Neu5Ac(a2-3)Gal(b1-4)GlcNAc(b1-3)Gal(b1-4)GlcNAc", "in_short": "as §1"}, "[13]": {"target": "Neu5Ac(a2-3)Gal(b1-4)GlcNAc(b1-3)Gal(b1-4)GlcNAc(b1-3)Gal(b1-4)GlcNAc", "in_short": "as §1"}, "[14]": {"target": "Neu5Ac(a2-3)Gal(b1-4)GlcNAc(b1-3)Gal(b1-4)[Fuc(a1-3)]GlcNAc", "in_short": "as §1"}, "[15]": {"target": "Neu5Ac(a2-3)Gal(b1-4)GlcNAc6S", "in_short": "as §1"}, "[16]": {"target": "Neu5Ac(a2-3)Gal(b1-4)[Fuc(a1-3)]GlcNAc", "in_short": "as §1"}, "[17]": {"target": "Neu5Ac(a2-3)Gal(b1-4)[Fuc(a1-3)]GlcNAc(b1-3)Gal", "in_short": "as §1"}, "[18]": {"target": "Neu5Ac(a2-3)Gal(b1-4)[Fuc(a1-3)]GlcNAc(b1-3)Gal(b1-4)GlcNAc", "in_short": "as §1"}, "[19]": {"target": "Neu5Ac(a2-3)Gal(b1-4)[Fuc(a1-3)]GlcNAc(b1-3)Gal(b1-4)[Fuc(a1-3)]GlcNAc(b1-3)Gal(b1-4)[Fuc(a1-3)]GlcNAc", "in_short": "as §1"}, "[20]": {"target": "Neu5Ac(a2-3)Gal(b1-4)[Fuc(a1-3)]GlcNAc6S", "in_short": "as §1"}, "[21]": {"target": "Neu5Ac(a2-3)Gal6S(b1-4)GlcNAc", "in_short": "as §1"}, "[22]": {"target": "Neu5Ac(a2-3)Gal6S(b1-4)[Fuc(a1-3)]GlcNAc", "in_short": "as §1"}, "Neu5Ac(a2-3)GalNAc": {"target": "Neu5Ac(a2-3)GalNAc", "in_short": "as §1"}, "[23]": {"target": "Neu5Ac(a2-3)GalNAc(b1-4)GlcNAc", "in_short": "as §1"}, "[24]": {"target": "Neu5Ac(a2-3)[GalNAc(b1-4)]Gal(b1-4)Glc", "in_short": "as §1"}, "[25]": {"target": "Neu5Ac(a2-3)[GalNAc(b1-4)]Gal(b1-4)GlcNAc", "in_short": "as §1"}, "[26]": {"target": "Neu5Ac(a2-3)[Neu5Ac(a2-6)]GalNAc", "in_short": "as §1"}, "Neu5Ac(a2-6)Gal": {"target": "Neu5Ac(a2-6)Gal", "in_short": "as §1"}, "Neu5Ac(a2-6)Gal(b1-4)Glc": {"target": "Neu5Ac(a2-6)Gal(b1-4)Glc", "in_short": "as §1"}, "[27]": {"target": "Neu5Ac(a2-6)Gal(b1-4)GlcNAc", "in_short": "as §1"}, "[28]": {"target": "Neu5Ac(a2-6)Gal(b1-4)GlcNAc(b1-3)Gal(b1-4)GlcNAc", "in_short": "as §1"}, "[29]": {"target": "Neu5Ac(a2-6)Gal(b1-4)GlcNAc(b1-3)Gal(b1-4)[Fuc(a1-3)]GlcNAc(b1-3)Gal(b1-4)[Fuc(a1-3)]GlcNAc", "in_short": "as §1"}, "[30]": {"target": "Neu5Ac(a2-6)Gal(b1-4)GlcNAc6S", "in_short": "as §1"}, "Neu5Ac(a2-6)GalNAc": {"target": "Neu5Ac(a2-6)GalNAc", "in_short": "as §1"}, "[31]": {"target": "Neu5Ac(a2-6)GalNAc(b1-4)GlcNAc", "in_short": "as §1"}, "Neu5Ac(a2-8)Neu5Ac": {"target": "Neu5Ac(a2-8)Neu5Ac", "in_short": "as §1"}, "[32]": {"target": "Neu5Ac(a2-8)Neu5Ac(a2-3)Gal(b1-4)Glc", "in_short": "as §1"}}, "note": "The list shows a part of the results.", "data": [{"binder": "B1", "values": [{"measurement": "glycan array binding signal (z-score)", "setting": "[1]", "value": 0.937}, {"measurement": "glycan array binding signal (z-score)", "setting": "[2]", "value": -0.117}, {"measurement": "glycan array binding signal (z-score)", "setting": "[3]", "value": 0.222}, {"measurement": "glycan array binding signal (z-score)", "setting": "[4]", "value": -0.129}, {"measurement": "glycan array binding signal (z-score)", "setting": "[5]", "value": 0.227}, {"measurement": "glycan array binding signal (z-score)", "setting": "[6]", "value": -0.293}, {"measurement": "glycan array binding signal (z-score)", "setting": "[7]", "value": 0.23}, {"measurement": "glycan array binding signal (z-score)", "setting": "[8]", "value": -0.082}, {"measurement": "glycan array binding signal (z-score)", "setting": "[9]", "value": 0.06}, {"measurement": "glycan array binding signal (z-score)", "setting": "Neu5Ac(a2-3)Gal(b1-4)Glc", "value": -0.498}, {"measurement": "glycan array binding signal (z-score)", "setting": "[10]", "value": 0.027}, {"measurement": "glycan array binding signal (z-score)", "setting": "[11]", "value": -0.167}, {"measurement": "glycan array binding signal (z-score)", "setting": "[12]", "value": 0.462}, {"measurement": "glycan array binding signal (z-score)", "setting": "[13]", "value": 0.027}, {"measurement": "glycan array binding signal (z-score)", "setting": "[14]", "value": 0.05}, {"measurement": "glycan array binding signal (z-score)", "setting": "[15]", "value": 0.048}, {"measurement": "glycan array binding signal (z-score)", "setting": "[16]", "value": 0.153}, {"measurement": "glycan array binding signal (z-score)", "setting": "[17]", "value": -0.413}, {"measurement": "glycan array binding signal (z-score)", "setting": "[18]", "value": 0.716}, {"measurement": "glycan array binding signal (z-score)", "setting": "[19]", "value": -0.321}, {"measurement": "glycan array binding signal (z-score)", "setting": "[20]", "value": 0.104}, {"measurement": "glycan array binding signal (z-score)", "setting": "[21]", "value": 0.11}, {"measurement": "glycan array binding signal (z-score)", "setting": "[22]", "value": 0.055}, {"measurement": "glycan array binding signal (z-score)", "setting": "Neu5Ac(a2-3)GalNAc", "value": -0.22}, {"measurement": "glycan array binding signal (z-score)", "setting": "[23]", "value": -0.02}, {"measurement": "glycan array binding signal (z-score)", "setting": "[24]", "value": -0.136}, {"measurement": "glycan array binding signal (z-score)", "setting": "[25]", "value": -0.287}, {"measurement": "glycan array binding signal (z-score)", "setting": "[26]", "value": 0.536}, {"measurement": "glycan array binding signal (z-score)", "setting": "Neu5Ac(a2-6)Gal", "value": 0.397}, {"measurement": "glycan array binding signal (z-score)", "setting": "Neu5Ac(a2-6)Gal(b1-4)Glc", "value": -0.408}, {"measurement": "glycan array binding signal (z-score)", "setting": "[27]", "value": -0.204}, {"measurement": "glycan array binding signal (z-score)", "setting": "[28]", "value": -0.305}, {"measurement": "glycan array binding signal (z-score)", "setting": "[29]", "value": -0.279}, {"measurement": "glycan array binding signal (z-score)", "setting": "[30]", "value": 0.143}, {"measurement": "glycan array binding signal (z-score)", "setting": "Neu5Ac(a2-6)GalNAc", "value": -0.231}, {"measurement": "glycan array binding signal (z-score)", "setting": "[31]", "value": -0.319}, {"measurement": "glycan array binding signal (z-score)", "setting": "Neu5Ac(a2-8)Neu5Ac", "value": -0.189}, {"measurement": "glycan array binding signal (z-score)", "setting": "[32]", "value": -0.136}]}]}
